Measured values taken from PMC3792905, “HIV-1 Vpr Induces the Degradation of ZIP and sZIP, Adaptors of the NuRD Chromatin Remodeling Complex, by Hijacking DCAF1/VprBP” (PLoS ONE, 2013).
No constants are given. Whether binding was seen depends on the method and setting. In cells and extracts the contact can be indirect. Some binding calls cover weakened binding; strength is not graded here. For some assays here: Sequences can lack the tags named with a protein.

Amino acid sequences for entries named in this document (tags omitted).
UniProt P05928: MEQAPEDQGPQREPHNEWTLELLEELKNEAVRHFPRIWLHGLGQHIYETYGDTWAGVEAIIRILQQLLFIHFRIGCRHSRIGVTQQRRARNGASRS
UniProt O14929: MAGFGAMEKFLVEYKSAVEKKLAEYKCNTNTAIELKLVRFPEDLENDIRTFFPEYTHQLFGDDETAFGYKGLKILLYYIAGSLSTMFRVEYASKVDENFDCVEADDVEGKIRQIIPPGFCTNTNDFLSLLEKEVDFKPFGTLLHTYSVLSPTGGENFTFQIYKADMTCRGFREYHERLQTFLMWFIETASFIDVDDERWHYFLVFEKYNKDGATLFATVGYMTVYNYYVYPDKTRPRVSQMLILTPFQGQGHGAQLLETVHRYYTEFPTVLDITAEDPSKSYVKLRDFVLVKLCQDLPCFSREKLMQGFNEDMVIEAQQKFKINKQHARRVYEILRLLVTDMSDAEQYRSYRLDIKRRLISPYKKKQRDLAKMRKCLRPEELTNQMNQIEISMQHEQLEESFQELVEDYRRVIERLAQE
UniProt Q13547: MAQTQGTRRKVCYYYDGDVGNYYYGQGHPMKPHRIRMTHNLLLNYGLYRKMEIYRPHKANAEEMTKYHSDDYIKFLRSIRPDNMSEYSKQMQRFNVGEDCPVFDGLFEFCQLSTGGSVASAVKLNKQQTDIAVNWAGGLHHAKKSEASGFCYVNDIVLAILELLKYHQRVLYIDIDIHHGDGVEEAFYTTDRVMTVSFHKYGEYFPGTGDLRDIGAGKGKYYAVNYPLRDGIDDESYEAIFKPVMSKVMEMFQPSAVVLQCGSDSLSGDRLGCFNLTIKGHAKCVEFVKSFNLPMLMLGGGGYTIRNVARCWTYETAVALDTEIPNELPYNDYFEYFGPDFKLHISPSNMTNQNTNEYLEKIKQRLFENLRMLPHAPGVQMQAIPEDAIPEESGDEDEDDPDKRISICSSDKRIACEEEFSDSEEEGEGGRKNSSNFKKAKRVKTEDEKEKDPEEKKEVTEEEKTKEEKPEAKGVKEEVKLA

Tests used:
[1] = molecular target: T1, FLAG-ZIP (UniProt Q8N5A5); experiment: co-IP; HEK293T cells transfected with HA-tagged Vpr and FLAG-tagged ZIP or sZIP; lysates 48 h post-transfection in SD buffer (50mM Tris-HCl pH 7.5, 150mM NaCl, 0.5% Triton X100); anti-FLAG beads overnight at 4°C, four washes, elution with FLAG peptide; Western blot
T1 sequence: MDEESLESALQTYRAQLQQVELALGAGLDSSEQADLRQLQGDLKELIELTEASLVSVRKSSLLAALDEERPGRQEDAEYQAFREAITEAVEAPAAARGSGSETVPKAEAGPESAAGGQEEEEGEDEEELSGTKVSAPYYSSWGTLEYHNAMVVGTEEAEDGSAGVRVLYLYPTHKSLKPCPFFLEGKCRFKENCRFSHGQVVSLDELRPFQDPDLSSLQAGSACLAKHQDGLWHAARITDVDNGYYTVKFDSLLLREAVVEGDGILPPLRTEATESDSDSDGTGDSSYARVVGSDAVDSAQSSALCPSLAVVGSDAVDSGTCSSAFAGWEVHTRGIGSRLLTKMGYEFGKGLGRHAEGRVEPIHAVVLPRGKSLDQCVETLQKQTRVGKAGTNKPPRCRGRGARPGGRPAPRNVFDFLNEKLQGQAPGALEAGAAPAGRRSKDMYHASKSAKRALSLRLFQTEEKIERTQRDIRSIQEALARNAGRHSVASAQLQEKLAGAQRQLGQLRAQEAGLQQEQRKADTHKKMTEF

[2] = molecular target: T2, FLAG-sZIP (UniProt Q8N5A5); experiment: as above
T2 sequence: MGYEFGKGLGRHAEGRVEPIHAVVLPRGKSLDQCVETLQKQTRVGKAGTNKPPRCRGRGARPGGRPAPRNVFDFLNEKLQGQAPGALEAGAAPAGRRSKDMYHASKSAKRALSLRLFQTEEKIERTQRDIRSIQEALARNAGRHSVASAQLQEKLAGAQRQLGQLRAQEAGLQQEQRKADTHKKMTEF

[3] = molecular target: HA-tagged Vpr from HIV-1 LAI (HIV-1 (LAI)) (UniProt P05928); experiment: co-IP; HEK293T cells transfected with HA-tagged Vpr or empty vector; lysates 48 h post-transfection in SD buffer; anti-HA beads overnight at 4°C, four washes, elution with HA peptide; Western blot of endogenous proteins

Substance	binding [1]	binding [2]	binding [3]
HA-tagged Vpr from HIV-1 LAI (from UniProt P05928 1-96)	binds	binds	
Histone acetyltransferase 1 (HAT1) (from UniProt O14929 1-419) (enzyme)	binds	binds	binds
histone deacetylase 1 (HDAC1) (from UniProt Q13547 1-482) (enzyme)	binds	binds	no binding
